About 120 (0.25%) of roughly 48,000 compounds were called active. About 4% were inconclusive and are not listed. Calls follow the shape of the dose curve; as a rule, active = well fitted activation curve with a large enough effect; inconclusive = small, poorly fitted or top-dose-only effect, or another doubt; inactive = no such curve, though single readings can be large or run the other way. This is one part of the list.
Assay: Primary qHTS for Identification of Small Molecule Activators of Huntingtin-Antisense Promoter Activity; also: nearly all actives have a fitted effect of over 55% in size
Conditions: HEK293 HTT-AS promoter firefly luciferase reporter, 24 h; series mostly up to 57.5 µM; activity change, positive = activation: at the top concentration
How it was run: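 HEK293 luciferase promoter-reporter cells (2,500/well) plated 24 h, then compounds added at up to 57.5 uM final for 24 h at 37 °C. Firefly luminescence by Dual-Glo, normalized to vehicle (0%) and zero RLU (-100%).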

SMILES | activity change, positive = activation
O=C(Cn1c(=O)n(Cc2nc(-c3ccccc3)no2)c(=O)c2cc3c(cc21)OCO3)Nc1ccc(Cl)cc1 | inactive: -18.1%
Cc1ccc(C)c(N2CCN(c3ccc(NC(=O)c4cccs4)cc3C(=O)O)CC2)c1 | inactive: 5.8%
CC(C)[C@H](N)C(=O)OCCOCn1cnc2c(=O)[nH]c(N)nc21 | inactive
CCCc1nnc(NC(=O)Cc2coc3cc(C)cc(C)c23)s1 | inactive: -19.2%
CCCN1CCN(CCCNC(=O)c2cnn(-c3ccc(F)cc3)c2-n2cccc2)CC1 | inactive: -15.3%
CCOc1ccc(Nc2nc3ccccc3n3c(CC)nnc23)cc1 | inactive: -9.88%
O=C(Cn1c(=O)n(-c2ccccc2)c(=O)c2sc3ccccc3c21)N1CCCC1 | inactive: 8.19%
CC(C)c1ccc(NC(=O)CN2C(=O)COc3ccc(S(=O)(=O)Nc4ccccc4)cc32)cc1 | inactive: -32.4%
O=[N+]([O-])c1cc(-c2nc(-c3cccnc3)no2)ccc1NCc1ccccc1 | inactive: -6.84%
O=C(Nc1ccc(Br)cc1)C1CCN(S(=O)(=O)c2cccc3nsnc23)CC1 | inactive: -10.6%
CC(C)OCCCNC(=O)CCCn1c(SCC(=O)c2ccc(F)cc2)nc2c(sc3ccccc32)c1=O | inactive: -8.48%
COc1ccc(-c2nn3c(=O)cc(CN4CCN(C(=O)Nc5ccc(C)c(Cl)c5)CC4)nc3s2)cc1 | inactive: -7.32%
COc1ccc(CCNC(=O)c2nnc(Cc3ccc(Cl)cc3)o2)cc1OC | inactive: -15.1%
Cc1ccc2oc(=O)c3cnn(CC(=O)Nc4cccc(C(F)(F)F)c4)c3c2c1 | inactive: -8.21%
Nc1c(-c2nc(-c3ccc(Cl)cc3)cs2)c2ccccn2c1C(=O)c1ccc2c(c1)OCO2 | inactive: -8.11%
COCCCNC(=O)c1cc2c(=O)n3cccc(C)c3nc2s1 | inactive: 14.1%
Cc1c(C)n(Cc2ccc(Cl)cc2)c2ccc(C(=O)NCCc3ccc(S(N)(=O)=O)cc3)cc12 | inactive: -47.8%
CO[C@@H]1[C@@H](OC(N)=O)[C@@H](O)[C@H](Oc2ccc3c(O)c(NC(=O)c4ccc(O)c(CC=C(C)C)c4)c(=O)oc3c2C)OC1(C)C | inactive
CCCCc1nc2ccccc2n2c(-c3ccc(C)cc3)c3c(=O)n(C)c(=O)n(C)c3c12 | inactive: 9.72% [at 11.5 µM, percent change from vehicle, -100% = no light]
CSc1cccc(NC(=O)CN(c2ccccc2)S(=O)(=O)N(C)C)c1 | inactive: -9.84%
CC1CCN(S(=O)(=O)c2ccc3c(c2)N(CC(=O)NC(C)c2ccccc2)C(=O)CO3)CC1 (stereo not drawn) | inactive: -8.26%
Cc1cc(N2CCCCC2)nc2ccc(NC(=O)c3cccc(F)c3)cc12 | inactive: 2.94%
COc1ccc(N2CCN(C(=O)c3ccc(CS(=O)(=O)c4ccc(Br)cc4)o3)CC2)cc1 | inactive: -15.5%
Cc1nc(N2CCCC2)c2c(C(=O)N3CCN(c4cccc(Cl)c4)CC3)c(C)oc2n1 | inactive: -36.4%

SMILES | activity change, positive = activation
C=Cc1ccc(CSc2nc(-c3ccccc3Cl)nc3c2Cc2c(CO)cnc(C)c2O3)cc1 | inactive: -23%
CN(C)CCNC(=O)CCCN1C(=O)c2cccnc2Oc2ccc(Cl)cc21 | inactive: 0.28%
O=C1CC(c2nc3ccccc3n2CCCOc2ccccc2)CN1c1ccc(F)cc1 (stereo not drawn) | inactive: -46%
Cc1cc(C)cc(-n2ccn(CC(=O)Nc3ccccc3C(F)(F)F)c(=O)c2=O)c1 | inactive: -3.56%
CCN(c1ccccc1)c1nnc(NC(=O)Nc2cccc(Br)c2)s1 | inactive: -13.3%
Cc1ccc(N2CC(C)Cn3c2nc2c3c(=O)n(CC(=O)O)c(=O)n2C)cc1 (stereo not drawn) | inactive: -6%
COCCCNC(=O)CSc1c2c(nc3ccc(Cl)cc13)CCCC2 | inactive: -27.8%
CCN(c1ccc(OC)cc1)S(=O)(=O)c1nnc(NC(=O)c2ccccc2Cl)s1 | inactive: -20.4%
CCOc1ccc(C2c3c(oc4ccc(C)cc4c3=O)C(=O)N2Cc2ccc3c(c2)OCO3)cc1OC (stereo not drawn) | inactive: -5.41%
Cc1ccc(CNC(=O)c2ccc(CSCc3ccc(C)cc3)o2)cc1 | inactive: -25.7%
C=C(C)[C@@H]1CC[C@]2(C)CC[C@]3(C)[C@H](CC[C@@H]4[C@@]5(C)CC[C@H](O)C(C)(C)[C@H]5CC[C@]43C)[C@@H]12 | inactive: -2.46%
Cc1ccc(NS(=O)(=O)c2ccc3[nH]c4c(c3c2)CCCCCC4)cc1Cl | inactive: -48.5%
COCC(=O)N1c2nc(C(C)C)nn2C2(CCCCC2)[C@@H]2CCCC[C@@H]21 | inactive: -31.3%
Cc1c(C(=O)NCc2ccccc2)sc2nc3n(c(=O)c12)CCC3 | inactive: 27.6%
CCCOC(=O)c1ccc(NC(=O)Cc2csc(C)n2)cc1 | inactive: -0.356%
CSc1nc2sc3c(c2c(=O)n1-c1ccccc1C)CCCC3 | inactive: -30.1%
Cc1cccc(N2C(=O)CSC23C(=O)N(Cc2cccc(C(F)(F)F)c2)c2ccccc23)c1 (stereo not drawn) | inactive: -33.5%
CCC(=O)N1CCc2cc(Br)cc(S(=O)(=O)NCc3ccc(Cl)cc3)c21 | inactive: -24.6%
O=C(Nc1ccc(NC(=O)c2cccs2)cc1)c1ccc(Br)cc1 | inactive: -28.7%
CC(C)(C)C(=O)Nc1ccc2nc(SCC(=O)N3CCCC3)sc2c1 | inactive: 14.2%
O=C(OCc1ccccc1Cl)c1ccc(-c2nnn(Cc3ccccc3)n2)cc1 | inactive: -1.18%
CCN(CCCNC(=O)c1cc2cc3cc(C)ccc3nc2s1)c1cccc(C)c1 | inactive: 12.1%
NCC1CCC(C(=O)Oc2ccc(CCC(=O)O)cc2)CC1 (stereo not drawn) | inactive: -28.3%
COc1ccc(/C=C(/C#N)c2nc(-c3ccc(-c4ccccc4)cc3)cs2)cc1 | inactive: -2.09%

SMILES | activity change, positive = activation
Cc1ccc(C)c(NC(=O)C(=O)NCCc2csc(-c3ccc(C(F)(F)F)cc3)n2)c1 | inactive: -7.86%
Cc1nc(-c2ccccc2)sc1CCNC(=O)c1ccco1 | inactive: -8.51%
CCN(C(=O)Cn1ncc2c1-c1cc(C)ccc1OC2)c1cc(Cl)ccc1OC | inactive: -44.8%
CCc1ccccc1NC(=O)CSc1ncc2c(n1)-c1ccccc1N(Cc1ccc(C)cc1)S2(=O)=O | inactive: 10.5%
Cc1ccc(S(=O)(=O)c2cn(Cc3ccccc3)c3cc(N4CCCC4)c(F)cc3c2=O)cc1C | inactive: -14.3%
COc1ccccc1CNS(=O)(=O)c1c(C)nc2sccn2c1=O | inactive: -1.97%
CCN(Cc1ccccc1)C(=O)CCNS(=O)(=O)c1ccc2c(c1)CC(C)N2C(C)=O (stereo not drawn) | inactive: -18.9%
CCOC(=O)c1ccccc1NS(=O)(=O)c1c(-c2ccc(C)cc2)csc1C(=O)OC | inactive: -34.3%
COc1cccc(CNC(=O)CCc2c(C)c3cc4c(C)c(C)oc4cc3oc2=O)c1 | inactive: -5.87%
CCC(CC)c1nn2c(=O)cc(COc3ccc(NC(=O)c4ccc(Cl)cc4)cc3)nc2s1 | inactive: -11.6%
COc1ccc(-n2ncc(C(=O)N3CCN(c4ccccn4)CC3)c2C2CCN(C(=O)OC(C)(C)C)CC2)cc1 | inactive: 0.888%
CC(Sc1oc(-c2ccco2)nc1S(=O)(=O)c1ccc(Br)cc1)c1ccccc1 (stereo not drawn) | inactive: 1.19%
COCCNc1nc(NCc2ccccc2OC)c2cnn(C)c2n1 | inactive: -22.9%
CCCCNc1nc(Oc2ccc(=O)n(-c3ccccc3)n2)nc(N(C)C)n1 | inactive: -11.4%
CN(C(=O)c1nn(C)c2c1COc1ccccc1-2)c1cccc(C(F)(F)F)c1 | inactive: -11.7%
CCC(C)NC(=O)c1ccc2c(c1)N(Cc1cccc(Cl)c1)C(=O)c1ccccc1S2=O (stereo not drawn) | inactive: -24.7%
COCCNC(=O)c1c(NC(=O)Cc2coc3cc(C)ccc23)sc2c1CCCC2 | inactive: -5.96%
Nc1nc(-c2ccccc2)c(Br)c(=O)[nH]1 | inactive: -2.85%
COc1ccc(N2CCN(CCCNC(=O)c3cnn(-c4ccc(F)cc4)c3-n3cccc3)CC2)cc1 | inactive: -51.3%
CCOC(=O)c1cn(CC(=O)Nc2cccc(Cl)c2C)nn1 | inactive: -3.17%
O=C(CN(c1cccc(Br)c1)S(=O)(=O)c1ccccc1)N1CCc2ccccc2C1 | inactive: -44.6%
COc1ccc(N2CCN(c3nc(-c4ccccc4F)nc4ccccc34)CC2)cc1 | inactive: -22.7%
CCOc1ccccc1NC(=O)C(NS(=O)(=O)c1cccc2nsnc12)c1ccccc1 (stereo not drawn) | inactive: -19.7%
Cc1nnc(N2CCN(c3ccccc3F)CC2)c2c1nnn2Cc1ccc(F)cc1 | inactive: 1.28%

SMILES | activity change, positive = activation
CCOC(=O)Cn1c(=O)cc(-c2ccccc2)c2c(C)nn(C)c21 | inactive: -10.3%
CCC(C)NC(=O)Cn1c(=O)n(-c2ccc(C)cc2)c(=O)c2ccccc21 (stereo not drawn) | inactive: -17%
CCc1ccccc1N(CC)C(=O)c1cc2c(s1)-c1ccccc1OC2 | inactive: -27.1%
CCc1ccc(-n2nc(CO)c(C(=O)NCc3ccccn3)n2)cc1 | inactive: 11.7%
COc1ccc(OC)c(CCNC(=O)c2ccc(CS(=O)Cc3cccc(Cl)c3)o2)c1 (stereo not drawn) | inactive: -18.2%
Cc1ccccc1CSc1nc2nc(C)c(Cc3ccccc3)c(C)n2n1 | inactive: 0.188%
Cc1nc(-c2ccccc2)sc1-c1ccc(SCC(=O)Nc2ccc(F)cc2F)nn1 | inactive: -0.554%
Cc1oc2ncnc(N3CCCCC3)c2c1C(=O)NCC1CCN(Cc2ccc(F)cc2)CC1 | inactive: 0.7%
CCN(CC)CCOc1ccc(/C(=C(\Cl)c2ccccc2)c2ccccc2)cc1 | inactive: -24.2%
CC(=O)Cn1nnc2sc(-c3ccccc3)cc2c1=O | inactive: 23.7%
Cc1c(Cl)cccc1Nc1sc(C(=O)c2ccccc2)c(N)c1S(=O)(=O)c1ccccc1 | inactive: -14.8%
COc1ccc(-n2c(C)c([N+](=O)[O-])c3ccc(O)cc32)cc1 | inactive: -28.1%
COCCNC(=O)c1cc2n(n1)CCCN(Cc1ccc(C)cc1)C2=O | inactive: 10.6%
CCOC(=O)N1CCc2c(sc3c2c(=O)n(Cc2ccccc2)c(=O)n3Cc2c(F)cccc2Cl)C1 | inactive: -20.7%
CN(Cc1ccccc1)C(=O)c1cc2c(=O)n(C)c3ccccc3c2s1 | inactive: 2.73%
O=C1CC(c2nc3ccccc3n2Cc2c(F)cccc2Cl)CN1c1cccc(C(F)(F)F)c1 (stereo not drawn) | inactive: -31.8%
CSc1cccc(N2C(=O)N(Cc3ccc([N+](=O)[O-])cc3)c3ccccc3S2(=O)=O)c1 | inactive: -21%
COc1ccc(CC(=O)Nc2c(C(=O)Nc3ccccc3F)oc3ccccc23)cc1 | inactive: 4.68%
COc1ccc(NC(=O)CC2C(=O)N(c3ccc(C)cc3)C(=O)N2CCc2ccccc2)cc1 (stereo not drawn) | inactive: 0%
COc1ccc(-c2ccc(NS(=O)(=O)c3ccc(F)c(C(F)(F)F)c3)cc2)nn1 | inactive: -44.9%
COC(=O)c1c(NC(=O)CCCOc2ccc(C)cc2)sc2c1C(C(=O)OC)CC2 (stereo not drawn) | inactive: -13.6%
